Laboratory results as given in PMC9767466.
These are yes or no findings as the source states them, for the method shown. For some assays here: In cells and extracts the contact can be indirect. Some binding calls cover weakened binding; strength is not graded here. For some assays here: Sequences can lack the tags named with a protein.

Assays:
[1] = biological target: T1, N-terminal FLAG-tagged EROS in RAW 264.7 macrophages (UniProt Q3TYS2); test: co-IP; IP of FLAG-EROS (rat anti-FLAG antibody, Protein G magnetic beads) from RAW264.7 EROS-FLAG macrophage lysate; immunoblot for P2X7
T1 sequence: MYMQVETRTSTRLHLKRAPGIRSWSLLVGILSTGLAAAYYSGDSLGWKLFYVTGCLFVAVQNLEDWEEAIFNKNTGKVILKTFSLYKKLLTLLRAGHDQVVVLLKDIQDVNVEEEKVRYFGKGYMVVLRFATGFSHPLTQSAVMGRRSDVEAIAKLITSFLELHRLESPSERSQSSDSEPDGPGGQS

[2] = biological target: T2, gp91phox, endogenous in PLB985 cells (human (endogenous in PLB985)) (UniProt P04839); test: co-IP; IP of endogenous gp91phox (mouse anti-gp91phox antibody, Protein G magnetic beads) from PLB985 lysate; immunoblot for EROS and p22phox
T2 sequence: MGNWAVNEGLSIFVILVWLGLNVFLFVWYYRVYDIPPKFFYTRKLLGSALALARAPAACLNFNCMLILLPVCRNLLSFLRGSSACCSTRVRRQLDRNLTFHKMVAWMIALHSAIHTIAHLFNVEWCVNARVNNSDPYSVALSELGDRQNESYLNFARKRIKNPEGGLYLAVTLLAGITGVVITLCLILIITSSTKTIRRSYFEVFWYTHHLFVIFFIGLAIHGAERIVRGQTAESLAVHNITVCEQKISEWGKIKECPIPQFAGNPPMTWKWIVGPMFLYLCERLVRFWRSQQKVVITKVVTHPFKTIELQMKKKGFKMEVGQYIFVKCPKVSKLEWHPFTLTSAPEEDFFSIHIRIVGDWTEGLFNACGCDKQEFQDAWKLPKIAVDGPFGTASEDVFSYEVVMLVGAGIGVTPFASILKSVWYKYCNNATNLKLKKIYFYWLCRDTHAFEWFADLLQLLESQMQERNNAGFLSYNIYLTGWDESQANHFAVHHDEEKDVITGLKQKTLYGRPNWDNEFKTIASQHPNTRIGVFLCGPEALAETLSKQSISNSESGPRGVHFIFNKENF

[3] = biological target: T3, gp91phox-GFP (not stated (human or mouse cDNA cloned)) (UniProt Q61093); test: SEC; Streptactin eluate of EROS from HEK293-F cells run on a Superose 6 column; protein (280 nm) and heme (414 nm) traces; fractions immunoblotted for gp91phox-GFP, EROS-FLAG and p22phox
T3 sequence: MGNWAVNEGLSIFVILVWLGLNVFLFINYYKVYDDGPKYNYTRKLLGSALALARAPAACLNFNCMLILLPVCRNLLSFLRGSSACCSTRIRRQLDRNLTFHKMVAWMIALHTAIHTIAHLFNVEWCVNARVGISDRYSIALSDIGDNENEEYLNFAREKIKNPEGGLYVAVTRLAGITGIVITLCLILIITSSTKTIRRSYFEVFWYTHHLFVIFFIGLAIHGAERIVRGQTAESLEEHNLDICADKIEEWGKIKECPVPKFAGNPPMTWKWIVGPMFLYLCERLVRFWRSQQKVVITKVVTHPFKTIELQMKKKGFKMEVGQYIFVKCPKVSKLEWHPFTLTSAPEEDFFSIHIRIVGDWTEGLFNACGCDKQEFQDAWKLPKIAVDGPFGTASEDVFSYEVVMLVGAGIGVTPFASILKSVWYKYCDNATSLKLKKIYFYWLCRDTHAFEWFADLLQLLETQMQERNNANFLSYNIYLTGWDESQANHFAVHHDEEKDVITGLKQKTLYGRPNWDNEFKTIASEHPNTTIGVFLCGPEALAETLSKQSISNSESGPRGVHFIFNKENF

[4] = biological target: EROS (CYBC1) aa 1-187, yeast two-hybrid fusion (Hybrigenics) (human) (UniProt Q9BQA9); test: two-hybrid; Hybrigenics; Gal4 DBD bait (pB66) and Gal4 AD prey (pP7), mating, diploid yeast, HIS3 reporter; growth on DO-3 medium (without tryptophan, leucine and histidine); streaks of three independent clones
[5] = biological target: T4, gp91phox (CYBB) aa 1-570, yeast two-hybrid fusion (Hybrigenics) (human), P04839; test: as above; conditions: remark: other sources report otherwise
T4 chain: T2 sequence

B1: P2X7, endogenous in RAW 264.7 macrophages (receptor, UniProt Q9Z1M0 1-595)
chain: MPACCSWNDVLQYETNKVTRIQSTNYGTVKWVLHMIVFSYISFALVSDKLYQRKEPVISSVHTKVKGIAEVTENVTEGGVTKLGHSIFDTADYTFPLQGNSFFVMTNYVKSEGQVQTLCPEYPRRGAQCSSDRRCKKGWMDPQSKGIQTGRCVPYDKTRKTCEVSAWCPTEEEKEAPRPALLRSAENFTVLIKNNIHFPGHNYTTRNILPTMNGSCTFHKTWDPQCSIFRLGDIFQEAGENFTEVAVQGGIMGIEIYWDCNLDSWSHHCRPRYSFRRLDDKNTDESFVPGYNFRYAKYYKENNVEKRTLIKAFGIRFDILVFGTGGKFDIIQLVVYIGSTLSYFGLATVCIDLLINTYSSAFCRSGVYPYCKCCEPCTVNEYYYRKKCESIMEPKPTLKYVSFVDEPHIRMVDQQLLGKSLQVVKGQEVPRPQMDFSDLSRLSLSLHDSPLTPGQSEEIQLLHEEVAPKSGDSPSWCQCGNCLPSRLPEQRRALEELCCRRKPGRCITTSKLFHKLVLSRDTLQLLLLYQDPLLVLGEEATNSRLRHRAYRCYATWRFGSQDMADFAILPSCCRWRIRKEFPKTEGQYSGFKYPY
- binding [1]: binds

B2: p22phox, endogenous in PLB985 cells (protein, UniProt P13498 1-195)
chain: MGQIEWAMWANEQALASGLILITGGIVATAGRFTQWYFGAYSIVAGVFVCLLEYPRGKRKKGSTMERWGQKYMTAVVKLFGPFTRNYYVRAVLHLLLSVPAGFLLATILGTACLAIASGIYLLAAVRGEQWTPIEPKPRERPQIGGTIKQPPSNPPPRPPAEARKKPSEEEAAVAAGGPPGGPQVNPIPVTDEVV
- binding [2]: binds

B3: p22phox (untagged pEGBacMam-p22phox) (protein, UniProt P13498 1-195)
chain: B2 chain
- binding [3]: binds

B4: EROS (CYBC1) aa 1-187, yeast two-hybrid fusion (Hybrigenics) (protein, UniProt Q9BQA9-1 1-187)
chain: MYLQVETRTSSRLHLKRAPGIRSWSLLVGILSIGLAAAYYSGDSLGWKLFYVTGCLFVAVQNLEDWEEAIFDKSTGKVVLKTFSLYKKLLTLFRAGHDQVVVLLHDVRDVSVEEEKVRYFGKGYMVVLRLATGFSHPLTQSAVMGHRSDVEAIAKLITSFLELHCLESPTELSQSSDSEAGDPASQS
- binding [4]: no binding

B5: gp91phox (CYBB) aa 1-570, yeast two-hybrid fusion (Hybrigenics), P04839 1-570 (protein)
chain: T2 sequence
- binding [5]: no binding
